Data taken from US20250340636A1, “ANTIBODIES TARGETING L1CAM AND USES THEREOF” (MEMORIAL SLOAN-KETTERING CANCER CENTER, priority 2023, published 2025).

Target: T1, HEK293FT cells transiently transfected with mouse L1CAM (Mus musculus, UniProt P11627)
T1 construct: expressed in transfected cells; host or cells: HEK293FT (transient)
Assay: Flow cytometry binding to HEK293FT cells transiently transfected with mouse L1CAM
Procedure: Hybridoma Screening. Binding to human L1CAM protein was tested by ELISA and to a HEK293T cell line overexpressing human L1CAM by flow cytometry. […] Cross-reactivity to cynomolgus L1CAM was not assessed at this point, as it is >99% homologous to human L1CAM. […] The antibodies were tested for binding to MDA-MB-231 cells, a breast cancer cell line that endogenously expresses L1CAM, followed by analysis of their internalization efficacy in MDA-MB-231 cells.
Binding Analysis. […] Dissociation constants (KD) for binding to soluble human and cynomolgus monkey L1CAM-His were determined using biolayer interferometry (BLI). In addition, EC50 values for binding to cell-bound L1CAM were established by flow cytometry using HEK293T/FT cells overexpressing human or mouse L1CAM, MCF-7 cells, and MDA-MB-231 cells. In addition, the epitope regions of the mAbs were determined by BLI interaction analysis with L1CAM subdomains (Ig and FN) expressed individually, and by a BLI competition experiment to identify epitope bins.
The binding curves for each antibody and cell line normalized to secondary antibody only staining (MFI ratio) are shown in FIGS. 14A-14C. EC50 values were determined by non-linear regression (Table 70). […] It is possible that differences in the conformation and oligomerization of L1CAM, depending on the surface expression level, contributed to the binding pattern. […]

T1 sequence (P11627 20-1260): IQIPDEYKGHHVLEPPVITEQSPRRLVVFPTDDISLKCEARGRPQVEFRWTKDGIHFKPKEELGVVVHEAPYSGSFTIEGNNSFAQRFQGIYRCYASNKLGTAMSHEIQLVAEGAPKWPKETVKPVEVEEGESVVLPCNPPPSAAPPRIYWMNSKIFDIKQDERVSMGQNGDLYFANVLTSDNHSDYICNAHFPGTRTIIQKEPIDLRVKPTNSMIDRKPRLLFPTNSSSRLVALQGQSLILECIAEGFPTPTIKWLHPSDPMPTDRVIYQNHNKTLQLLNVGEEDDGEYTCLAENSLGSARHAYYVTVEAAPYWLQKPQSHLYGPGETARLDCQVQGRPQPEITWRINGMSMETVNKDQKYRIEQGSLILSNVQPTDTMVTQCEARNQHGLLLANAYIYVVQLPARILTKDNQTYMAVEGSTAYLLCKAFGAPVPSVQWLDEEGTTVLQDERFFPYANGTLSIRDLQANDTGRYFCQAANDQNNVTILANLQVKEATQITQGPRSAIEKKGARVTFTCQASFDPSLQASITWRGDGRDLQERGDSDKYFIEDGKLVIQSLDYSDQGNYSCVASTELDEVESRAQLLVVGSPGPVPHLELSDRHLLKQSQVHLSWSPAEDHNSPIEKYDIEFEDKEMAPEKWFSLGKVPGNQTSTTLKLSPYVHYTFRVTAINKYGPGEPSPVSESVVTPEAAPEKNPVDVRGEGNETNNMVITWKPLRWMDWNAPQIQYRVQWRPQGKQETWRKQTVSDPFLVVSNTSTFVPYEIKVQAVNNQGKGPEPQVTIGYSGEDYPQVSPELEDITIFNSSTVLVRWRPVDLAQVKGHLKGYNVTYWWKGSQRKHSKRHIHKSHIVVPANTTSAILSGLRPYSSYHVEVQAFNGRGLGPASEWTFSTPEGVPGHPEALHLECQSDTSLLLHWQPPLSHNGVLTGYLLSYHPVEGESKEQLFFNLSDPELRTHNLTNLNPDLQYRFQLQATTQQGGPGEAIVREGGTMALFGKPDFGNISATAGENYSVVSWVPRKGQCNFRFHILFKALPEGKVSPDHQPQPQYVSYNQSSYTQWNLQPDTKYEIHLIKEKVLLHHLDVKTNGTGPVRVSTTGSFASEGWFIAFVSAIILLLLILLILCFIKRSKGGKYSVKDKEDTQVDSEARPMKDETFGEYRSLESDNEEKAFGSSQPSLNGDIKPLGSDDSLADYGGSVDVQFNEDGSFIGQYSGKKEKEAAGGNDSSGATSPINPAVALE

B1: TDI-Y-004 (antibody)
heavy: QVQLVQSGAEVKKPGSSVKVSCKASGYTFTNYYIHWVRQAPGQGLEWMGKIGPGSGSPYYQGMFKDRVTITADESTSTAYMELSSLRSEDTAVYYCARWLLPFDYWGQGTLVTVSS[human IgG1 constant region not printed]
light: EIVLTQSPGTLSLSPGERATLSCRASSSVNYMHWYQQKPGQAPRLLIYATSILASGIPDRFSGSGSGTDYTLTISRLEPEDFAVYYCQQFSSDPLTFGGGTKVEIKRTVAAPSVFIFPPSDEQLKSGTASVVCLLNNFYPREAKVQWKVDNALQSGNSQESVTEQDSKDSTYSLSSTLTLSKADYEKHKVYACEVTHQGLSSPVTKSFNRGEC
Cross-reactivity to mouse LICAM on cells (HEK293T): EC50: No binding
